Measured values from the supplement of paper PMC3334620.
Over roughly 33,000 sequences, “E-score (-0.5 to 0.5)” has its median near -0.012; the highest 2% begin near 0.29. This is one part of the list.

molecular target: T1, Ybr033w (UniProt P38073); assay: PBM E-score (8-mer binding enrichment) (E-score (-0.5 to 0.5)); higher = stronger / more preferred TF binding; most listed sequences are background and not binding sites; settings: protein concentration: 200 nM; construct: GST-full length
T1 sequence: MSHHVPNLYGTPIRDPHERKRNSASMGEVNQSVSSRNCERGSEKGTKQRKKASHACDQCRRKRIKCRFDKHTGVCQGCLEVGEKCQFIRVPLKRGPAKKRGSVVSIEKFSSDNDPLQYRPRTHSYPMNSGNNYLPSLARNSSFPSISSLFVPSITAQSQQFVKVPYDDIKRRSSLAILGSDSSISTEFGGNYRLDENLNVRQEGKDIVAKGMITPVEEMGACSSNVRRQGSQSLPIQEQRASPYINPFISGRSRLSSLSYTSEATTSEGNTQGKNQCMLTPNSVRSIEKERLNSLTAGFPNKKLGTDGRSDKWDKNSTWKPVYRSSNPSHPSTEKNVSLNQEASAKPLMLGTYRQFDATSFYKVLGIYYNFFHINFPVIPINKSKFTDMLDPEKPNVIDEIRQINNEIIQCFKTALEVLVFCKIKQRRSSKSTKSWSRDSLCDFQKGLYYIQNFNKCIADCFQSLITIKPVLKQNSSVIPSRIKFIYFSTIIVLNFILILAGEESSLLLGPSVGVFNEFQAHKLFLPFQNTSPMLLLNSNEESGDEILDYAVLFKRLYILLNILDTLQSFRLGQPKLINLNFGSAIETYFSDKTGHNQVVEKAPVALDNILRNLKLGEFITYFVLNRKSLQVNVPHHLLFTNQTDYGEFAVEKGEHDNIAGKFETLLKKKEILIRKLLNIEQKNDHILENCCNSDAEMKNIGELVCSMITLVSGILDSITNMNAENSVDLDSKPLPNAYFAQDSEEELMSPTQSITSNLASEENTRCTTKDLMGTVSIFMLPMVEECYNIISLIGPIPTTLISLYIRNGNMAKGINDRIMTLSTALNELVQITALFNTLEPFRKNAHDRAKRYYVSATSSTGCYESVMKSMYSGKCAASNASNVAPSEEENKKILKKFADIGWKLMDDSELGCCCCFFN
Summary of the method: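 Detection of bound protein used fluorescent anti-GST, with scans normalised by masliner. The proteins were GST-tagged yeast transcription factors applied at about 100-200 nM to universal all-10-mer Agilent arrays made double-stranded by primer extension. Each ungapped eight-base word, pooled with its reverse complement, was scored with an E-score from the Universal PBM Analysis Suite.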

Sequence | PBM E-score
CACAGAAA | 0.133
CCTCTCAC | -0.13
GAAACGCA | -0.0929
TTAACCAA | 0.176
CTGCCTCC | -0.112
CTCAGGGC | -0.154
AAGCCGGG | -0.142
TCCCTACA | -0.0308
AAAGGGGC | -0.255
GAATACCA | 0.0653
GTAGGAAC | 0.112
CGTTGTGA | -0.15
ACCCTCTA | -0.135
AACGACAC | 0.0902
ATCCGGAA | 0.403
ATAGTCCC | -0.159
CATCTTTA | 0.175
AAAATTAT | 0.358
AACTGCGT | -0.00184
ACATGGAT | 0.108
ATCTTCAT | 0.088
CTTGTTTC | 0.129

Sequence | PBM E-score
GATGAACA | 0.107
CCTCGTGC | -0.123
ACTCATAG | 0.0419
GCTTAGCA | -0.00267
CAAGCGAC | -0.0723
CCTCGGAA | 0.209
GCACTAGA | 0.102
ATCAGAGC | 0.103
CTAGCCCC | -0.203
AACGATAG | 0.0746
ATACGTTA | 0.0904
TCAACACA | 0.164
AGTCCAAT | 0.0395
CTCAATAA | 0.12
CTCCTCAC | -0.054
GTAGTCCA | -0.0115
TACCGTAA | -0.0237
GCGCGGCA | -0.0206
AGGGCACG | -0.185
AAAGGGTC | -0.136
GCTATCGA | -0.0604
AATCGTTC | 0.0164

Sequence | PBM E-score
ATCTGAAG | 0.0132
AAGTACAG | -0.0133
AGTTGATG | 0.0527
CCTGGGTC | -0.289
CGCAGCAA | -0.0433
AAATTGCT | 0.12
ATCCCAAG | -0.014
GGGCGCTA | -0.321
ACCCACAC | -0.135
TGTCTAAA | 0.0946
ATCTTATC | 0.117
CGTCCAAG | -0.11
GAGGGCGC | -0.214
CATAGATG | -0.107
GGAGAGCA | -0.225
GACGCAGA | -0.127
GGAAGGAC | -0.15
GAGTTAAA | 0.0599
GGGACTAC | -0.131
CTGATTAA | 0.22
CTTTTCAC | 0.119
AATATGCC | 0.0284

Sequence | PBM E-score
CTTGGTAC | 0.158
CAGTAATA | 0.317
CGAGCGGA | -0.0451
CAATGCAC | -0.0535
ACGGGCAG | -0.177
CCACAGTA | 0.101
GAGATTAA | 0.182
ATTTGTTA | 0.185
AGAGGCTC | -0.264
CATTAATG | 0.23
ATAATTGG | 0.157
ATATGAAA | 0.284
AATATAGT | 0.271
CTGCAGTC | -0.347
TCCGACCA | -0.0213
TATCAGAA | 0.178
ATGAGTTC | -0.077
AGACTATG | -0.0137
ATAACCGG | -0.215
GTATTATA | 0.275
